In article PMC11532958, “Role of protein domains in trafficking and localization of the voltage-gated sodium channel β2 subunit” (The Journal of Biological Chemistry, 2024):

Target: the molecule itself
Assay: non-reducing SDS-PAGE with Western blot; lysates of MDCK cells transiently expressing WT or mutant β2-YFP, prepared the day after transfection; DTT omitted and samples not heated, in parallel with reducing conditions (DTT); parental cells or cells stably expressing NaV1.5-YFP (comparable pattern)

Protein	stoichiometry N
β2-YFP C127A (natural protein, source: MDCK cells, transiently transfected, in lysate; not shown: YFP, C-terminal, kept) not shown	~4
β2-YFP C50A (natural protein, voltage-gated sodium channel β2 subunit, human, SCN2B cDNA (CCDS 8390.1) with Cys-50 changed to Ala; source: MDCK cells, transiently transfected, in lysate; not shown: YFP, C-terminal, kept) not shown	~4
